According to PubChem BioAssay AID1745853 (National Center for Advancing Translational Sciences (NCATS), 2022):
This is one part of the list. These are further read-outs of the screen, such as a control signal, another cell line or another target. No call is given for them. Numbered stars: 1 amine (or outer) side, 2 acyl side, 3 side chain; on linkers, the order of the positions; unused ones are H or OH. Square brackets hold non-standard residues; d marks the D form. Peptide text beside a SMILES is read from it. X3 = CC(CC(O[*:1])C(=O)[*:2])C(=O)O; NMeV = CN[CH](C(=O)O)C(C)C; NMeA = CN[CH](C)C(=O)O; βAla = NCCC(=O)O

What was measured:
Experiment in all cases: Primary Screen for Target Class Profiling of Small Molecule Inhibitors of Methyltransferases
[1] = target: Glycine N-methyltransferase (Homo sapiens) (UniProt Q14749); details: purified enzyme, MTase-Glo SAH luminescence; measured here: GNMT inhibition; at 40 µM; stronger effect = lower value
Text: (§1) PI: Matthew D. Hall Ph.D. and Quinlin M. Hanson Ph.D.
(§2) National Center for Advancing Translational Sciences (NCATS)
(§3) National Institute of Health (NIH), Rockville, MD
(§4) Target class profiling (TCP) is a chemical biology approach amenable to investigating understudied biological targets. TCP is achieved by developing a generalizable assay platform and applying it to screen a curated set of compound libraries against representative members of a target class. Small molecule methyltransferases (SMMTase) are a subclass of methyltransferase that act on metabolites to modulate signaling pathways, metabolize xenobiotics, or balance the available methyl pool. We screened four curated libraries totaling 27,574 unique compounds against the SMMTases nicotinamide N-methyltransferase (NNMT), phenylethanolamine N-methyltransferase (PNMT), histamine N-methyltransferase (HNMT), glycine N-methyltransferase (GNMT), catechol O-methyltransferase (COMT), and guanidinoacetate N-methyltransferase (GAMT). The data generated by this TCP can be leveraged for informed tool molecule development. For example, in the associated publication we identified a chemotype of HNMT-selective inhibitors. Additionally, we identified a putative SMMTase-selective inhibitor with potential as a tool molecule for studying broader methyltransferase biology.
(§5) High-through put screening assays were developed at the National Center for Advancing Translational Science (NCATS) for the enzymes NNMT, PNMT, HNMT, GNMT, COMT, and GAMT. Enzymatic activity was measured as a function of SAM cofactor conversion using the MTase Glo kit (Promega) for all enzymes. All assays were performed in 1536-well format with substrates and SAM concentrations at KM values. Enzyme concentration and assay timing were optimized for 10-20% SAM conversion. Initial screening of 27,574 compounds was done as single-point assays using the highest compound concentration (40 uM). […] These compounds were replated in 11-point dose response and assayed against NNMT, PNMT, HNMT, GNMT, COMT, GAMT, and a counter-assay. The IC50 and efficacy (maximal response) values were determined for each dose-response curve. These values are also accounted for in the area under the curve (AUC) values.
(§6) PROTOCOL TABLE (as described by Inglese J, Shamu CE and Guy RK. 2007)
(§7) SEQUENCE No. (e.g., 1, 2, 3, etc.); […] (e.g., Cells, Incubation, Reagent, etc.); VALUE; DESCRIPTION.
(§8) 1; Reagent; 2 uL; SMMTase Enzyme (2x) in reaction buffer, columns 1- 48.
(§9) 2; Reagent; 1 uL; SAM (4x) in reaction buffer, columns 1-48.
(§10) 3; Controls; 23 nL; DMSO in column 4; sinefungin in DMSO (0 uM - 40 uM) in 7-point 1:2 dilution series (n = 2) in column 2.
(§11) 4; Compounds; 23 nL; Columns 5-48.
(§12) 5; Reagent; 1 uL; Substrate (4x) in reaction buffer, columns 2-48.
(§13) 6; Time; 20-30 min; Incubation.
(§14) 7; Reagent; 1 uL; MTase-Glo reagent (5X), columns 1-48.
(§15) 8; Time; 30 min; Incubation.
(§16) 9; Reagent; 5 uL; MTase-Glo Detection reagent, columns 1-48.
(§17) 10; Time; 30 min; Incubation, luminescence evolution.
(§18) 11; Detection; Luminescence; ViewLux uHTS Microplate Imager (PerkinElmer).
(§19) NOTES (numbers refer to Sequence numbers above)
(§20) 1, 2, 5. White Medium Binding Greiner 1536-well plates (Cat #789175-F, Greiner Bio-One, Monroe, NC); Reaction buffer: 50 mM Tris, pH 8.0, 3 mM MgCl2, 1 mM EDTA, 50 mM NaCl, 1 mM DTT, and 0.1 mg/mL BSA. Evaporation was prevented by covering assay plates with metal lids containing holes to allow gas diffusion.
(§21) 1. Six SMMTase were profiled: HNMT, GNMT, PNMT, COMT, NNMT, GAMT
(§22) 5. The corresponding substrate was used for each enzyme: HNMT - 5.3 uM Histamine; GNMT - >500 uM Glycine; PNMT - 16.2 uM Norephinephrine; COMT - 13.7 uM Norephinephrine; NNMT - 3.8 uM Nicotinamide; GAMT - 2.5 uM Guanidinoacetate.6, 8, 10. Room temperature
(§23) 6. Final reaction conditions: 10 nM COMT, 5 uM SAM, 15 uM norepinephrine, 50 mM Tris, pH 8.0, 3 mM MgCl2, 1 mM EDTA, 50 mM NaCl, 1 mM DTT, and 0.1 mg/mL BSA; refer to tables 2 and S1 for specific timing.
8. […]

[2] = target: Guanidinoacetate N-methyltransferase (Homo sapiens) (UniProt Q14353); details: purified enzyme, MTase-Glo SAH luminescence; measured here: GAMT inhibition; at 40 µM; stronger effect = lower value
Text: as §1, §2, §3, §4, §5, §6, §7, §8, §9, §10, §11, §12, §13, §14, §15, §16, §17, §18, §19, §20, §21, §22, §23
8. […]

[3] = target: Histamine N-methyltransferase (Homo sapiens) (UniProt P50135); details: purified enzyme, MTase-Glo SAH luminescence; measured here: HNMT inhibition; at 40 µM; stronger effect = lower value
Text: as §1, §2, §3, §4, §5, §6, §7, §8, §9, §10, §11, §12, §13, §14, §15, §16, §17, §18, §19, §20, §21, §22, §23
8. […]

[4] = target: Nicotinamide N-methyltransferase (Homo sapiens) (UniProt P40261); details: purified enzyme, MTase-Glo SAH luminescence; measured here: NNMT inhibition; at 40 µM; stronger effect = lower value
Text: as §1, §2, §3, §4, §5, §6, §7, §8, §9, §10, §11, §12, §13, §14, §15, §16, §17, §18, §19, §20, §21, §22, §23
8. […]

[5] = target: Phenylethanolamine N-methyltransferase (Homo sapiens) (UniProt P11086); details: purified enzyme, MTase-Glo SAH luminescence; measured here: PNMT inhibition; at 40 µM; stronger effect = lower value
Text: as §1, §2, §3, §4, §5, §6, §7, §8, §9, §10, §11, §12, §13, §14, §15, §16, §17, §18, §19, §20, §21, §22, §23
8. […]
On the % scale 0 is the no-effect control and ±100 the full control effect.

SMILES	activity change, negative = inhibition [1] [%]	activity change, negative = inhibition [2] [%]	activity change, negative = inhibition [3] [%]	activity change, negative = inhibition [4] [%]	activity change, negative = inhibition [5] [%]
CSc1ccc(C2c3cccn3-c3ccccc3CN2C(=O)NCc2ccco2)cc1 (stereo not drawn)	-2.16	0	-2.78	-9.27	1.28
Cc1cc(C)cc(NC(=O)N2Cc3ccccc3-n3cccc3C2c2cccc(Cl)c2)c1 (stereo not drawn)	14.7	2.56	4.58	10.2	8.85
CC(=O)c1cccc(NC(=O)OC[C@H]2C[C@@H]3CCN2C[C@@H]3c2cc(C3CCCC3)nc(C)n2)c1	-1.33	1.09	0.914	-6.79	-10.5
O=C(Nc1ccccc1F)N1Cc2ccccc2-n2cccc2C1c1ccccc1Cl (stereo not drawn)	1.95	-3.73	7.17	-4.84	1.67
O=C(O)C(Cl)Cl		6.21		-1.56	8.93
CC(C)(C)c1cc(C=C(C#N)C#N)cc(C(C)(C)C)c1O	-49.7	-15.4	-40.9	-18.6	-24.4
O=C(O)c1nn(Cc2ccc(Cl)cc2Cl)c2ccccc12	-19.2	4.47	-1.5	-10.4	4.7
CCc1ccc(NC(=O)N2Cc3ccccc3-n3cccc3C2c2ccc(C)cc2)cc1 (stereo not drawn)	9.9	2.43	-1.12	-4.53	0.958
CCOP(=O)(OCC)Oc1ccc2c(C)cc(=O)oc2c1	-0.343	8.76	-0.887	-16.2	-8.27
CCOc1ccc(C2c3cccn3-c3ccccc3CN2C(=O)Nc2cc(OC)cc(OC)c2)cc1 (stereo not drawn)	2.81	1.2	9.78	7.51	7.51
CCC(C)C1NC(=O)C2CCCN2C(=O)C(CC(C)C(=O)O)OC(=O)CCNC(=O)C(C)N(C)C(=O)C(C(C)C)N(C)C1=O (stereo not drawn) (cyclo([X3]PI[NMeV][NMeA][βAla]); configuration not given here)	-1.45	-7.07	3.16	-15	-0.544
O=C(Nc1ccc2c(c1)OCCO2)N1Cc2ccccc2-n2cccc2C1c1cccs1 (stereo not drawn)	8.88	0	1.02	-4.32	1.81
C=C(C)C(=O)O[C@H]1[C@@H]2[C@H](C)C(=O)O[C@@H]2C[C@@H](C)[C@@H]2C=CC(=O)[C@]21C	-3.96	4.81	9.68	-5.81	4.89
CCOc1ccccc1NC(=O)N1Cc2ccccc2-n2cccc2C1c1ccc(C)cc1 (stereo not drawn)	7.82	3.52	6.62	2.94	-0.11
CCCCCn1cc(C(=O)C2C(C)(C)C2(C)C)c2ccccc21	-2.37	-19.6	6.38	-34.8	-12.6
COc1ccc(NC(=O)N2Cc3ccccc3-n3cccc3C2c2cccc(Cl)c2)cc1 (stereo not drawn)	8.7	4.54	0.326	-3.34	1.95
C[C@]12CC[C@H]3[C@@H](CCC4=C/C(=N/OCC(=O)O)CC[C@@]43C)[C@@H]1CC[C@@H]2O	-3.84	2.83	4.41	-15.5	-1.91
COc1ccc(C2c3cccn3-c3ccccc3CN2C(=O)Nc2cccc(OC)c2)cc1 (stereo not drawn)	3.93	0.174	-2.3	1.67	6.32
CC[C@@H](CO)NC(=O)[C@@H]1C=C2c3cccc4[nH]cc(c34)C[C@H]2N(C)C1	-44.1	-13.8	-13	-22.6	-62
CCC1CC2CN3CCc4c([nH]c5ccccc45)C(C(=O)OC)(C2)C13 (stereo not drawn)	-5.07	3.97	0.485	-11.5	3.55
CCC1(C2=NCCN2)Cc2ccccc2O1 (stereo not drawn)	0.002	2.61	-4.61	-11.5	-10.4
CCOC(=O)c1ncn2c1[C@@H]1CCCN1C(=O)c1cc(OC)ccc1-2	-7.28	4.72	-1.45	-4.59	5.99
CCOc1ccccc1NC(=O)N1Cc2ccccc2-n2cccc2C1c1cc(F)cc(F)c1 (stereo not drawn)	6.19	0	7.83	4.96	6.09
NC(N)=Nc1ccc2[nH]c3c(c2c1)C[C@@]1(O)[C@H]2Cc4ccc(O)c5c4[C@@]1(CCN2CC1CC1)[C@H]3O5	-29.1	2.9	-8.59	-7.19	5.68
Cc1ccc(C2c3cccn3-c3ccccc3CN2C(=O)Nc2ccc(Br)c(C)c2)cc1 (stereo not drawn)	13.2	0	10.1	2.6	8.54
COc1ccc(NC(=O)N2Cc3ccccc3-n3cccc3C2c2ccc(SC)cc2)cc1OC (stereo not drawn)	-4.54	1.12	-1.49	-2.77	2.47
CC(C)c1ccc(C2c3cccn3-c3ccccc3CN2C(=O)Nc2ccc(F)cc2F)cc1 (stereo not drawn)	-3.6	4.34	3.65	-3.59	-1.43
CC(C)NC(=O)N1Cc2ccccc2-n2cccc2C1c1cccs1 (stereo not drawn)	6.85	0	8.59	1.71	4.86
CCOC(=O)C1CCC(CNC(=O)N2Cc3ccccc3-n3cccc3C2c2ccc(F)cc2)CC1 (stereo not drawn)	0.183	2.3	-3.8	-11.3	1.6
CN1C(=O)[C@@H](Cc2c[nH]c3ccccc23)N=C(c2ccccc2F)c2ccccc21	-2.92	-5.46	7.92	-29.2	-3.43
